# From article PMC4242493
# Some of the results follow. The list includes weakly bound sequences.
# Target: MaxL homodimer (UniProt P61244)
# Assay: universal protein-binding microarray (PBM)
# Conditions: PBS-based mixture, 10 nM His-tagged protein dimer, 2% milk, 200 ng/uL BSA, 50 ng/uL salmon testes DNA, 0.02% TX-100; detection with Alexa 488 anti-His …; high values mean tight binding; most listed sequences are background and not binding sites; double strand, one strand shown
# UniProt P61244, sequence (P61244 whole entry): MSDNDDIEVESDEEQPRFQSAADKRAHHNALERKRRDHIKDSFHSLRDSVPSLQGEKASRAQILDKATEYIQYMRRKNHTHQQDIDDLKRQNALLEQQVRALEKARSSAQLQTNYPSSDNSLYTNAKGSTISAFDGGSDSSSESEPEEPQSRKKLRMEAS
row,Sequence,binding signal (normalized occupancy)
1,AGAGCACT,0.0735
2,CTTACGGC,0.0685
3,CGCCATAG,0.0742
4,AGGACAAG,0.0738
5,AACGCTAT,0.0773
6,CGTCACTC,0.074
7,GCTGCGCC,0.0683
8,AGTAGGTG,0.0747
9,CGGAGGTA,0.0743
10,CCGCCGAG,0.0652
11,TCATCGAA,0.0731
12,AAATCTCG,0.0765
13,AGTCGTCC,0.0751
14,CCGGATAG,0.0739
15,CGAGCCAC,0.0769
16,AGACCAAC,0.0715
17,AGAACTCG,0.0748
18,GCCGAAAA,0.0676
19,CGTCCGCC,0.0713
20,ACGGTTAA,0.0751
21,CTGGAGGA,0.0754
22,CTTTCTGA,0.0702
23,GGAATGAC,0.0748
24,CCCCTCGA,0.0737
25,GCAATTTA,0.0738

row,Sequence,binding signal (normalized occupancy)
1,CTGCGGCA,0.0732
2,GTATTCAA,0.0744
3,ATTTAGAG,0.0735
4,AAAGTAGC,0.0741
5,CCAGTGTA,0.0747
6,CATCGACG,0.0723
7,ATTCAGCA,0.0725
8,CGCTCTCC,0.072
9,ATCATCGG,0.0757
10,ACGGCTTC,0.0707
11,GCCTTTTA,0.0745
12,GCCTAATA,0.0741
13,CGGGAATC,0.0688
14,AGGGGCCC,0.0684
15,GGCGCCAC,0.0741
16,AGATGTTA,0.0811
17,ACCAAAAT,0.0775
18,GAAGATCA,0.0746
19,CCGGAACG,0.0685
20,CCCATCAA,0.0771
21,AGGCCAAT,0.0728
22,ACTCAGGG,0.0699
23,ACCGCGTG,0.182
24,GGTAGGTA,0.0774
25,AATCCTCG,0.0791

row,Sequence,binding signal (normalized occupancy)
1,CTTTCCCC,0.0708
2,CCGACACA,0.0823
3,AGCGGGTC,0.0699
4,CCTGCTGA,0.0756
5,ATGCCTGA,0.0785
6,ACCTATGG,0.0727
7,ACTCCTGC,0.075
8,AAAAACTG,0.0754
9,ATCAGGAG,0.072
10,ACGCAACT,0.0755
11,AACCGATC,0.0743
12,ACTCTAAT,0.0825
13,TCGCGTCA,0.0772
14,GCTAGATA,0.076
15,AGGTAGAC,0.0734
16,GCACGCCA,0.0859
17,AGCTGTTC,0.0717
18,CTATACCC,0.0826
19,CGACGGTA,0.071
20,CAAGAGCC,0.0711
21,TATCTCGA,0.0777
22,CGGGCACG,0.0805
23,TACATTAA,0.0769
24,CATCCCTC,0.0774
25,ACCGGCCC,0.0691

row,Sequence,binding signal (normalized occupancy)
1,CTCTTTCA,0.0697
2,CGCCCGGC,0.0697
3,GAACGACA,0.0759
4,CATCGTGG,0.0917
5,GAGCGAGA,0.074
6,ATCTGTCA,0.0756
7,ACCCTTCG,0.0701
8,CGACCACC,0.082
9,GCGTTTGA,0.0702
10,GATAGCGA,0.073
11,AATATCGA,0.0796
12,CCCGGCGA,0.0723
13,TACAAGGA,0.0729
14,CGACGACG,0.071
15,CGGTGCAC,0.0856
16,TACGGCTA,0.0712
17,AAGCTCCA,0.0783
18,CTTACACA,0.0759
19,GTAGCTAC,0.0725
20,AGGTTCTA,0.0755
21,TTGAACAA,0.0742
22,CGAGGGCC,0.0729
23,GGGAAAAA,0.0741
24,CTAATGAG,0.076
25,AGACTCAT,0.0857

row,Sequence,binding signal (normalized occupancy)
1,ACCCACAA,0.0776
2,GGGGCTAC,0.0715
3,GCGGCGAC,0.0664
4,AAATCGTT,0.0735
5,ACGATGAC,0.0759
6,ATAAGGGG,0.0784
7,CTGCTTAC,0.0709
8,CCCTAGTA,0.0772
9,GGTCGGAC,0.0772
10,CCGTAGCA,0.0754
11,ATTCATAA,0.0836
12,AGAGTACA,0.0755
13,AGTCAATG,0.0749
14,CATAATTA,0.0816
15,GACCGCCC,0.0713
16,AAAACCTC,0.0698
17,CACTACGG,0.0696
18,CAAGCACG,0.0851
19,AGTAATAG,0.077
20,CATATTGC,0.081
21,CGCAGGTC,0.0664
22,TAATACGA,0.0769
23,CGGGGTAC,0.0764
24,GGACGTCA,0.0747
25,CCCTGTAA,0.076

row,Sequence,binding signal (normalized occupancy)
1,GTTATGAA,0.0832
2,GACGTATC,0.0746
3,ATCTAGCC,0.0726
4,ACCGTGTA,0.0779
5,ACAGGCAG,0.0762
6,CCGGGCAG,0.0656
7,ACTTGGCT,0.0687
8,TAATTGGA,0.0728
9,AGAACCGA,0.0681
10,ACCGGCAG,0.0717
11,GAGGGTAC,0.0722
12,TCTATAGA,0.0822
13,GGGTTCGA,0.0736
14,AGCGCGGC,0.074
15,ACGCAGGC,0.0747
16,ACCAGACG,0.0711
17,AACGTTGT,0.0817
18,AAGTCCAC,0.0776
19,AAGAGCAG,0.0746
20,CTGAATGA,0.0725
21,CGTCACCC,0.0766
22,ATACAGAC,0.0801
23,CGCTTACC,0.0746
24,ATGGCTAA,0.0788
25,CCCCCAAC,0.0751

row,Sequence,binding signal (normalized occupancy)
1,AGAGAATG,0.077
2,ATCAGATG,0.0804
3,AACTTCAA,0.0748
4,CCGCTTTC,0.066
5,GGTCATAC,0.0809
6,AGCCACCC,0.0778
7,CATAGATC,0.0778
8,ATAACTCA,0.0756
9,CGCCCTAA,0.0752
10,ACCTCCAC,0.075
11,AAGGTTAA,0.0737
12,CGACGTCG,0.0689
13,GCGCCTCC,0.0716
14,GGTGACAA,0.0758
15,GCGAGCAA,0.0723
16,CATAGTCC,0.0786
17,CCCTATCA,0.0783
18,CTCCCCAG,0.0736
19,ACCTCCGG,0.0726
20,GACGCCGA,0.0719
21,GGGTTTAC,0.0759
22,CTGCGTTA,0.0701
23,ATTCCCTC,0.0778
24,AGGATTGG,0.0762
25,GTAAACCA,0.0801

row,Sequence,binding signal (normalized occupancy)
1,CAGTGATC,0.075
2,AGCGAAGG,0.0678
3,CTAGGTAA,0.0728
4,ACTTACCG,0.0743
5,GTTGCCGA,0.0693
6,AAACCTGA,0.0719
7,CCCTCTAA,0.0754
8,CATTAACA,0.0801
9,CACCGCTG,0.0713
10,CCAACGGC,0.067
11,CACCCCCG,0.0852
12,GCGCAATA,0.0744
13,CCTACTAA,0.0707
14,AACCCTGG,0.0704
15,CACCAAGA,0.0735
16,AGCTCCAC,0.0753
17,GCTTAAAC,0.0661
18,AAACTCCG,0.0699
19,ATACACTC,0.0788
20,GGCCCACA,0.0789
21,ACCACTTA,0.0717
22,ATATGGGG,0.0907
23,AATGCTTA,0.0806
24,CGCTCTAG,0.0702
25,CACTACGC,0.0743

row,Sequence,binding signal (normalized occupancy)
1,AGACGCGC,0.0741
2,GATGTCGA,0.0818
3,CAGCCAAG,0.0684
4,CGTCCTTC,0.0725
5,CTTTATTC,0.0734
6,ATACCTGC,0.0811
7,GGCACCCC,0.0741
8,GGTCACCA,0.0728
9,TGTCTCAA,0.0828
10,CAACCGGC,0.0692
11,ACCAGTAA,0.0782
12,CCTGGGTA,0.0757
13,AGCTTCTC,0.0764
14,CCGTCAGA,0.0769
15,ACGCAGCA,0.0743
16,AAACGAGT,0.0728
17,ACCATTCG,0.0798
18,TAGCAATA,0.0725
19,CCCCCTCG,0.0775
20,CCGGGGTA,0.0759
21,AATAAGGC,0.0746
22,ACTCCTTG,0.0742
23,CAAGAAAC,0.0724
24,ACAGATGG,0.0869
25,ACCGGAGG,0.0682

row,Sequence,binding signal (normalized occupancy)
1,GCGGAGAA,0.0686
2,CTGAATAC,0.0791
3,CGCTACGC,0.0681
4,AGCTTATA,0.0791
5,AGCAAAAG,0.0707
6,CCGCGCCG,0.0707
7,AACCCAGT,0.0735
8,AATGTTGA,0.0797
9,GACAGGTA,0.0758
10,AATGGCTG,0.0758
11,GTTTGTCA,0.0796
12,CGCAGGAA,0.0695
13,GGGCCCAA,0.0639
14,GAAAGTGA,0.0763
15,CCTAGCCG,0.069
16,AAACGCGA,0.0771
17,CGTGCGTC,0.0896
18,TGGCTACA,0.0814
19,CGTGATTA,0.0871
20,CGAGGGCG,0.0774
21,AGCCAGTG,0.0698
22,ACTAATCT,0.075
23,AGCGTATG,0.0754
24,GGCAAGCA,0.0733
25,AGACTCGA,0.0716

row,Sequence,binding signal (normalized occupancy)
1,ATGCTAAC,0.0804
2,ACGTAAGA,0.0838
3,ACGCTGCT,0.0814
4,AAGGCTGT,0.0758
5,ACCAACGA,0.081
6,ACACGAAA,0.0765
7,CGGGATGA,0.0731
8,CGAGACCC,0.0802
9,CGGCAGAC,0.0689
10,GGCTAGCA,0.0747
11,AGAAGGGA,0.0732
12,ATCACGTG,0.363
13,CGGGTGCC,0.0651
14,GGCCCTAA,0.0688
15,ATTGCGGG,0.0765
16,AACAAGGA,0.0762
17,ATCGCGTC,0.0719
18,ATCTCGGG,0.0719
19,AAGCTTGC,0.0676
20,ACAGCTTG,0.0733
21,GGTTCTAA,0.0726
22,CCAGCAAG,0.0681
23,CTGTCAAG,0.0727
24,AGCATTCC,0.0752
25,AAGAGACG,0.0716

row,Sequence,binding signal (normalized occupancy)
1,ATTAAAGG,0.0805
2,ATCGCCGA,0.0696
3,AGGGTTCG,0.0723
4,AAGGGCGC,0.0669
5,ACGAGGTG,0.0853
6,CTTCAGAC,0.0728
7,TAGGTCAA,0.0785
8,TCCTGCGA,0.0696
9,GGATTAAA,0.075
10,ACTACGTC,0.0721
11,AACAAGCT,0.0721
12,ATGTCCAC,0.087
13,TAAGAACA,0.0773
14,CCACAAGG,0.0834
15,CACGAAGC,0.075
16,AGTAGATG,0.0731
17,AATATACT,0.079
18,CTTGGGTA,0.0749
19,GTCCACTA,0.0773
20,CGTTATGC,0.0788
21,CTTTTTGC,0.0701
22,CCGGTAGA,0.0669
23,CGGGTGAG,0.076
24,CATGGCCC,0.0896
25,AAGTGGAG,0.077

row,Sequence,binding signal (normalized occupancy)
1,CATTTCAG,0.0727
2,ACGTCAGT,0.0695
3,AGAAGCGC,0.0644
4,AGGTTTAC,0.0729
5,ACGAGGGC,0.0833
6,AGGAAGGG,0.069
7,AAAGTCGA,0.0698
8,TCGCTGAA,0.0725
9,CATCACAG,0.0787
10,AATCTTCG,0.0707
11,AGTGGGGA,0.0783
12,GGAACGTA,0.0739
13,AGGGGACC,0.0718
14,CGTAGAGA,0.0713
15,GCGCCCTA,0.0679
16,AGCAGACT,0.0708
17,CAACGCTA,0.0734
18,GTACGAAA,0.0715
19,CGGCATCA,0.0791
20,CCCTCTCC,0.072
21,GCTGTCCC,0.0732
22,CCCTGACG,0.0718
23,ACAATTCC,0.0741
24,GAACCGCA,0.0725
25,AATTTTTC,0.0718

row,Sequence,binding signal (normalized occupancy)
1,GGAGCCGA,0.0662
2,AATGGTAG,0.0804
3,ACACGTGA,0.383
4,CCTATAGC,0.0748
5,AATGATCG,0.0781
6,AACCCCCC,0.0825
7,CCTCGCTA,0.0749
8,GCGAGGAC,0.0744
9,CAAACGGG,0.0714
10,AATATATC,0.0875
11,TAAGCTTA,0.0722
12,AGGACGAG,0.0685
13,CCGAATTA,0.0738
14,GGTTTGGA,0.0748
15,CCATAGGG,0.0736
16,CATTAAGA,0.0765
17,TTAATGAA,0.0772
18,CCCAGCGA,0.0693
19,ATTCGGTA,0.0747
